A lower IC50 marks a more sensitive line; a fit beyond the top or the lowest dose is shown as a bound at that dose. The AUC spans the tested range (256-fold, ending at the top dose) of the same fit: 1 means no effect, lower means more sensitive. For some assays here: An inferred top dose was derived from the fitted curves, not read from the paper. For some assays here: An entry number marks a drug with two screens in the source, which often give different values.
Experiments:
Assay in all cases: Viability of human cancer cell lines after 72 h of drug (GDSC screen)
Thapsigargin = compound: C/C=C(/C)C(=O)O[C@H]1C(C)=C2[C@H]([C@@H]1OC(=O)CCCCCCC)[C@@](C)(OC(C)=O)C[C@H](OC(=O)CCC)[C@@]1(O)[C@H]2OC(=O)[C@@]1(C)O [Thapsigargin]; details: top dose 0.512 µM; top dose inferred
Description: (§1)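 Human cancer cell lines in 384-well plates, medium with 10% serum, drug for 72 h over a 256-fold dose range (nine 2-fold or five 4-fold steps up to the top dose). Adherent lines were fixed and stained with the nucleic acid dye Syto60, suspension lines read with resazurin; signal relative to control wells, capped at 0 and 100%. One two-parameter sigmoid per drug and line, fitted in a mixed model over all curves with the slope shared within a line.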

QL-X-138 = compound: C=CC(=O)Nc1cc(-n2c(=O)ccc3cnc4ccc(-c5cn[nH]c5)cc4c32)ccc1C [QL-X-138]; details: top dose 10.24 µM; top dose inferred
Description: as §1

GSK269962A = compound: CCn1c(-c2nonc2N)nc2cnc(Oc3cccc(NC(=O)c4ccc(OCCN5CCOCC5)cc4)c3)cc21 [GSK269962A]; details: top dose 5 µM; screen: GDSC drug entry 1192; top dose inferred
Description: as §1

MPS-1-IN-1 = compound: COc1cc(N2CCC(O)CC2)ccc1Nc1cc(Nc2ccccc2S(=O)(=O)C(C)C)c2cc[nH]c2n1 [MPS-1-IN-1]; details: top dose 20 µM; top dose inferred
Description: as §1

(5Z)-7-Oxozeaenol = compound: COc1cc(O)c2c(c1)/C=C/C[C@H](O)[C@H](O)C(=O)/C=C\C[C@H](C)OC2=O [(5Z)-7-Oxozeaenol]; details: top dose 10 µM; top dose inferred
Description: as §1

CP466722 = compound: COc1cc2ncnc(-n3nc(-c4ccccn4)nc3N)c2cc1OC [CP466722]; details: top dose 16 µM; top dose inferred
Description: as §1

Zibotentan = compound: COc1nc(C)cnc1NS(=O)(=O)c1cccnc1-c1ccc(-c2nnco2)cc1 [Zibotentan]; details: top dose 20 µM; top dose inferred
Description: as §1

ABT-869 = compound: Cc1ccc(F)c(NC(=O)Nc2ccc(-c3cccc4[nH]nc(N)c34)cc2)c1 [ABT-869]; details: top dose 1.024 µM; top dose inferred
Description: as §1

CHIR-99021 = compound: Cc1cnc(-c2cnc(NCCNc3ccc(C#N)cn3)nc2-c2ccc(Cl)cc2Cl)[nH]1 [CHIR-99021]
Description: as §1

KU-55933 = compound: O=c1cc(-c2cccc3c2Sc2ccccc2S3)oc(N2CCOCC2)c1 [KU-55933]; details: top dose 10 µM
Description: as §1

[1] = top dose 2.56 µM, screen: GDSC drug entry 154
[2] = top dose 10 µM, screen: GDSC drug entry 1241, top dose inferred

| Cell Line | AUC (Thapsigargin) | IC50 (Thapsigargin) | AUC (QL-X-138) | IC50 (QL-X-138) | AUC (GSK269962A) | IC50 (GSK269962A) | AUC (MPS-1-IN-1) | IC50 (MPS-1-IN-1) | AUC ((5Z)-7-Oxozeaenol) | IC50 ((5Z)-7-Oxozeaenol) | AUC (CP466722) | IC50 (CP466722) | AUC (Zibotentan) | IC50 (Zibotentan) | AUC (ABT-869) | IC50 (ABT-869) | AUC (CHIR-99021; [1]) | IC50 (CHIR-99021; [1]) | AUC (CHIR-99021; [2]) | IC50 (CHIR-99021; [2]) | AUC (KU-55933) | IC50 (KU-55933) |
| --- | --- | --- | --- | --- | --- | --- | --- | --- | --- | --- | --- | --- | --- | --- | --- | --- | --- | --- | --- | --- | --- | --- |
| HCC1806 (breast, adherent) | 0.246 | 0.00641 µM | 0.794 | 4.3 µM | 0.936 | > 5 µM | 0.962 | > 20 µM | 0.778 | 3.73 µM | 0.902 | > 16 µM | 0.987 | > 20 µM | 0.989 | > 1.02 µM | 0.975 | > 2.56 µM | 0.975 | > 10 µM | 0.988 | > 10 µM |
| HCT-116 (large intestine, adherent) | 0.243 | 0.00608 µM | 0.653 | 1.66 µM | 0.823 | 2.75 µM |  |  | 0.459 | 0.485 µM | 0.735 | 4.49 µM | 0.987 | > 20 µM | 0.979 | > 1.02 µM |  |  |  |  | 0.978 | > 10 µM |
| HLE (liver, adherent) | 0.255 | 0.00665 µM | 0.83 | 5.93 µM | 0.857 | 3.7 µM | 0.937 | > 20 µM | 0.558 | 0.89 µM | 0.963 | > 16 µM | 0.988 | > 20 µM | 0.977 | > 1.02 µM | 0.988 | > 2.56 µM | 0.953 | > 10 µM | 0.955 | > 10 µM |
| Jurkat (T-cell leukaemia, suspension) |  |  |  |  | 0.845 | 2.69 µM |  |  | 0.773 | 3.22 µM |  |  |  |  |  |  |  |  | 0.949 | > 10 µM | 0.967 | > 10 µM |
| LoVo (large intestine, adherent) | 0.237 | 0.0055 µM | 0.933 | > 10.2 µM | 0.86 | 4.29 µM | 0.97 | > 20 µM | 0.497 | 0.614 µM | 0.914 | > 16 µM | 0.987 | > 20 µM | 0.985 | > 1.02 µM | 0.922 | > 2.56 µM | 0.933 | > 10 µM | 0.818 | 5.72 µM |
| MDA-MB-157 (breast, adherent) | 0.901 | > 0.512 µM | 0.858 | 8.8 µM | 0.937 | > 5 µM | 0.978 | > 20 µM | 0.798 | 4.89 µM | 0.952 | > 16 µM | 0.988 | > 20 µM | 0.986 | > 1.02 µM | 0.971 | > 2.56 µM | 0.95 | > 10 µM | 0.961 | > 10 µM |
| MDA-MB-436 (breast, adherent) | 0.288 | 0.00678 µM | 0.934 | > 10.2 µM | 0.941 | > 5 µM | 0.893 | > 20 µM | 0.642 | 1.71 µM | 0.942 | > 16 µM | 0.981 | > 20 µM | 0.982 | > 1.02 µM | 0.979 | > 2.56 µM | 0.973 | > 10 µM | 0.965 | > 10 µM |

From the supplement of paper PMC4967469
